The structures appear in SMILES notation.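 Protocol summary: plate cells (96-well), add compound at 5 concentrations, incubate 48 h, interpolate endpoints linearly. At the GI50, growth is halved. TGI marks complete inhibition of growth.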 Some results are limits rather than exact numbers.

This test relates to NCI-H322M lung. The test is described as follows: NCI anticancer screen, dose series, 48 h.
On to `CC(=O)[C@@]12O[C@@H]1CC1C3CCC4=CC(O)CCC4(C)C3CCC12C` (stereo partly drawn), for which the GI50 was greater than 100 µM and the TGI is greater than 100 µM.
As to `Cc1ccc2c(c1)C(=O)C1(Cc3ccccc3C1=O)C2` (stereo not drawn), the TGI was greater than 100 µM.
For the molecule `CO[C@H]1/C=C(/C)CCC[C@H](C)[C@H](O)[C@@H](C)C(=O)C(C)(C)[C@@H](O)CC(=O)O[C@@H]1/C(C)=C/c1csc(C)n1`, the GI50 was 0.028 µM and the TGI is greater than 100 µM.
`N=C(N)SCc1ccc2c(c1)Sc1ccccc1O2`: the TGI came to 14.1 µM.
The same measure, in the same setting: for `N#Cc1c(-c2ccccc2)/c(=C\Nc2ccc(F)cc2)c(=O)n2c1nc1ccccc12` the value was 88.5 µM; for `c1ccc(COc2cccc3ccc[n+](Cc4ccccc4)c23)cc1`, 80.9 µM.
In the case of `CN(C)c1ccc(C(=N/N=C2\C(=O)Nc3ccccc32)c2ccc(N(C)C)cc2)cc1`, the TGI was greater than 52.3 µM.
Molecule `O=c1[nH]c(=O)n(C2OC(CO)C(O)C2O)c2nc(-c3ccc(-c4ccccc4)cc3)cnc12` (stereo not drawn) registered a TGI greater than 100 µM.
With `Cc1cc(I)cc(CN(C)CCCN2CCCCC2)c1O`, the GI50 was 41.9 µM and the TGI was greater than 100 µM.
For `COc1ccc(-c2nnc(COc3ccc(NC(=O)Nc4cc(C(F)(F)F)cc(C(F)(F)F)c4)cc3F)o2)cc1`, the GI50 is 2.39 µM and the TGI was found to be 9.98 µM.
In turn, `CCN(CCCN(CC)C(=O)Nc1c(C)cccc1C)C(=O)Nc1c(C)cccc1C` displayed a TGI greater than 100 µM.
`C[Si](C)(C)C1(Sc2ccccc2)SCCCS1` registered a TGI greater than 100 µM.
Same read-out and setting: the result for `NC1(C(=O)OCc2ccccc2)CCCC1` reads greater than 100 µM; that for `Cc1cc(N(CCOS(C)(=O)=O)CCOS(C)(=O)=O)ccc1C=O`, 9.1 µM.
For the molecule `CCN(CC)c1ccc(-c2cc(-c3cc(OC)c(OC)c(OC)c3)nc(N3CCOCC3)c2C#N)cc1`, the GI50 is 12.1 µM and the TGI is greater than 100 µM.
Regarding `CN(C)C1(N(C)C)Oc2c(c(=O)n(C)c(=O)n2C)C(c2ccc(Br)cc2)C1(F)F` (stereo not drawn), the TGI is greater than 100 µM.
Same read-out and setting: for `NC1=NCC(CN2CCOCC2)O1` (stereo not drawn) the value was greater than 100 µM.
Molecule `OC(c1nc2ccccc2[nH]1)C(O)C(O)C(O)c1nc2ccccc2[nH]1` (stereo not drawn) yielded a TGI greater than 100 µM.
For `O=S(=O)(CCn1c(Sc2ccccc2)c(Sc2ccccc2)c2ccccc21)c1ccccc1`, the TGI was greater than 100 µM.
As for `CCOC(=O)CC(=O)ON(C)C(C)=O`, the TGI was greater than 100 µM.
For the molecule `C[C@@H]1CCC2[C@@H](C)[C@@H](OCC(CO[C@H]3OC4O[C@@]5(C)CC[C@H]6[C@H](C)CCC([C@H]3C)[C@@]46OO5)OC(=O)CCC(=O)O)OC3O[C@@]4(C)CC[C@@H]1[C@]32OO4` (stereo partly drawn), the GI50 was 10.2 µM and the TGI came out at 32.5 µM.
In turn, `CCCCCCN(CCCCCC)C(=O)Cc1c2n(c3ccccc13)Cc1ccccc1-2` had a TGI greater than 100 µM.
Still for that read-out and setting: the result for `CC(=N/N=C/c1ccccn1)/C(C)=N/N=C(C)/C(C)=N/N=C(C)/C(C)=N/N=C(C)/C(C)=N\N=C\c1ccccn1` reads greater than 100 µM; that for `CCN(CC)/C(SCc1ccccc1)=C(\C(Cl)=C(Cl)Cl)[N+](=O)[O-]`, 50.2 µM; that for `C/C(=N\NC(=S)NC(CCC(=O)O)C(=O)O)c1ccccn1` (stereo not drawn), greater than 100 µM.
`CC1(C)C2CCC(=O)C1CC2` (stereo not drawn) registered a TGI greater than 100 µM.
Molecule `Cc1ccc(-c2[nH]c(=O)n(C3OC(CO)C(O)C(O)C3O)c(=O)c2C#N)cc1` (stereo not drawn) showed a TGI greater than 100 µM.
For the molecule `CCC1(CC)C(=O)NN(C(=O)c2ccccc2)C1=O`, the TGI is greater than 100 µM.
For `COc1ccc(-c2nnc(COc3ccc(C(=O)/C=C/c4ccco4)cc3)o2)cc1`, the GI50 was 5.64 µM and the TGI is 17.9 µM.
As to `COc1ccc(S(=O)(=O)NNS(C)(=O)=O)cc1`, the TGI was greater than 100 µM.
With `COc1cc(/C=C/C(=O)CC(=O)/C=C/c2ccc(OC(=O)CCCCC3CCSS3)c(OC)c2)ccc1OC(=O)CCCCC1CCSS1` (stereo not drawn), the TGI is greater than 100 µM.
Same read-out and setting: the result for `COC(=O)C1CCC(=O)N1C(c1ccc(OC)cc1)c1ccc2c(c1)OCO2` (stereo not drawn) reads greater than 100 µM; that for `Cn1c2ccccc2c2cc(-c3ccccc3)c3c(c21)C(=O)c1ccccc1C3=O`, 52.4 µM; that for `COc1cc(C2c3cc4c(cc3OC(C)(O)C2C)OCO4)cc(OC)c1OC` (stereo not drawn), greater than 100 µM.
In the case of `COC1=CC(=O)C(C2CC(=O)c3c(O)cc(O)cc3O2)=CC1=O` (stereo not drawn), the TGI was greater than 93.2 µM.
For `OCCCCCNCc1cc2cc3c(cc2c2cc(OCc4ccccc4)ccc12)OCO3`, the GI50 is 1.76 µM and the TGI came out at 3.22 µM.
As for `Clc1ccc(C(c2ccc(Cl)cc2)c2ccccn2)cc1`, the TGI was determined as 48.5 µM.
For the molecule `CC(=O)/C(=C\c1cccc([N+](=O)[O-])c1)C(=O)Nc1ccccc1C`, the TGI is greater than 100 µM.
Regarding `CCN1CCN(c2nc(C)cc(N(CCNc3ccnc4cc(Cl)ccc34)Cc3ccc4c(c3)OCO4)n2)CC1`, the GI50 was 2.52 µM and the TGI is 8.07 µM.
In the case of `CC(=O)OC1=CC(n2cc(F)c(=O)[nH]c2=O)OC(C)C1=O` (stereo not drawn), the TGI was greater than 100 µM.
On the same count and under the same terms, the result for `O=c1cc(-c2ccccc2)oc2cc(OCCCOc3ccc4c(=O)cc(-c5ccccc5)oc4c3)ccc12` reads greater than 100 µM; that for `Cc1ccc(S(=O)(=O)Nc2ccccc2C(=O)c2ccc(C)c(C)c2)cc1`, greater than 100 µM.
With `CCCCCCCC(=O)SCC/C=C/[C@@H]1CC(=O)NCc2cc(ccn2)C2=N[C@@](C)(CS2)C(=O)N[C@@H](C(C)C)C(=O)O1`, the GI50 is 0.0478 µM.
In turn, `CCOC(=O)NC(=O)c1cn(CCCO)c(=O)[nH]c1=O` returned a TGI greater than 100 µM.
`O=C1c2cc3c(cc2-c2c1c1ccc(F)cc1c(=O)n2CCCNCCO)OCO3`: the GI50 was 0.0695 µM and the TGI amounted to 0.639 µM.
`O=C(CC(C(=O)c1ccsc1)c1ccc2c(c1)OCO2)c1ccccc1` (stereo not drawn): the TGI was greater than 100 µM.
Same read-out and setting: for `Nc1ncnc2c1nnn2C1OC(CO)C(O)C1O` (stereo not drawn) the value was 22 µM; for `CCNC(=O)Cc1nc2c(N)ncnc2n1C1OC(CO)C(O)C1O` (stereo not drawn), greater than 100 µM.
With `OCC#Cc1ccccc1C#Cc1ccccc1`, the GI50 was 16.1 µM and the TGI stood at 30 µM.
As for `C#CC1(O)CCC2C3CCc4cc(Oc5nc(F)nc(-c6c7ccccc7c7sc8ccccc8n67)n5)ccc4C3CC[C@@]21C` (stereo partly drawn), the TGI was greater than 100 µM.
Turning to `CCN1c2ccccc2C(C(SC)S(=O)(=O)c2ccc(C)cc2)c2c1[nH]c(=O)n(C)c2=O` (stereo not drawn), the TGI was greater than 100 µM.
On the same count and under the same terms, the result for `O=C(/C=C\c1ccc(Cl)c(Cl)c1)c1ccc(Cl)cc1Cl` reads greater than 100 µM; that for `COP(=O)(/C=C/c1cc(C(=O)OCc2ccccc2)n(S(=O)(=O)c2ccccc2)c1)OC`, greater than 100 µM.
For `Cn1cnc([N+](=O)[O-])c1Sc1nc2ccccc2[nH]1`, the TGI came to 61.5 µM.
On the same count and under the same terms, for `CC(=O)OC1COC(n2ccc3cc(Br)c([N+](=O)[O-])cc32)C(OC(C)=O)C1OC(C)=O` (stereo not drawn) the value was greater than 100 µM; for `COc1cccc(CCCNC(=O)Cc2cc(OC)c(OC)cc2CO)c1`, greater than 100 µM.
Same read-out and setting: the result for `COc1c(Cl)c(=O)oc2ccc(Cl)cc12` reads greater than 100 µM; that for `CSc1nc(NC2OCC(OC(C)=O)C(OC(C)=O)C2OC(C)=O)c(N=CC=Nc2c(NC3OCC(OC(C)=O)C(OC(C)=O)C3OC(C)=O)nc(SC)[nH]c2=O)c(=O)[nH]1` (stereo not drawn), greater than 100 µM.
As to `C=C1C(=O)O[C@H]2[C@H]1CC/C(COC(=O)c1c[nH]c3ccccc13)=C\CC[C@@]1(C)O[C@@H]21`, the GI50 was 1.85 µM and the TGI is 4.06 µM.
As to `CCCCCCCCC/C=C1\CCC(CN2CCOCC2)C1=O` (stereo not drawn), the TGI was 27.2 µM.
In the case of `CCOC(=O)c1c(C)nc2c3ccccc3c(C#N)c(C)n12`, the TGI is greater than 100 µM.

The values are drawn from PubChem BioAssay (NCI).
